Experiment [1] addresses IQGAP1 (human (endogenous in MDA-MB-231 and Hs578T)) (UniProt P46940). The experiment in a line: co-IP; endogenous proteins in Hs578T lysates, cells serum-starved 4 h, without or with 10 µM LPA; precipitation with a rabbit anti-Rap1A or rabbit anti-IQGAP1 antibody, blot with a monoclonal anti-β-arrestin2 antibody.
Experiment [2] has the same target. As to the kind of experiment: co-IP; endogenous proteins in MDA-MB-231 lysates, cells serum-starved 4 h, without or with 10 µM LPA; precipitation with a rabbit anti-Rap1A or rabbit anti-IQGAP1 antibody, blot with a monoclonal anti-β-arrestin2 antibody.
The target in experiment [3] is FLAG-LPA1 (UniProt Q92633). The experiment in a line: co-IP; MDA-MB-231 cells stably expressing FLAG-LPA1, serum-starved 4 h, without or with 10 µM LPA (5 to 30 min); precipitation with a mouse anti-FLAG monoclonal antibody, blot for the endogenous partner.
Experiment [4] deals with T1, RalA (UniProt P11233).
T1 sequence: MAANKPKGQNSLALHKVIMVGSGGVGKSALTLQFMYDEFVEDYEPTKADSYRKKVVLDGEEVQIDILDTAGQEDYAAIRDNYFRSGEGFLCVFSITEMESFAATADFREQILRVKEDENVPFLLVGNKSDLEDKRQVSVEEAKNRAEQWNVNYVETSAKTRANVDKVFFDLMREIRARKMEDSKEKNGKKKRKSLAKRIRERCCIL
The experiment in a line: co-IP; MDA-MB-231 cells, serum-starved 4 h, without or with 10 µM LPA; precipitation with an anti-GFP monoclonal antibody, blot with a rabbit anti-IQGAP1 antibody.

Chains of the proteins cited; added tags and fusions are not shown.
UniProt P46940: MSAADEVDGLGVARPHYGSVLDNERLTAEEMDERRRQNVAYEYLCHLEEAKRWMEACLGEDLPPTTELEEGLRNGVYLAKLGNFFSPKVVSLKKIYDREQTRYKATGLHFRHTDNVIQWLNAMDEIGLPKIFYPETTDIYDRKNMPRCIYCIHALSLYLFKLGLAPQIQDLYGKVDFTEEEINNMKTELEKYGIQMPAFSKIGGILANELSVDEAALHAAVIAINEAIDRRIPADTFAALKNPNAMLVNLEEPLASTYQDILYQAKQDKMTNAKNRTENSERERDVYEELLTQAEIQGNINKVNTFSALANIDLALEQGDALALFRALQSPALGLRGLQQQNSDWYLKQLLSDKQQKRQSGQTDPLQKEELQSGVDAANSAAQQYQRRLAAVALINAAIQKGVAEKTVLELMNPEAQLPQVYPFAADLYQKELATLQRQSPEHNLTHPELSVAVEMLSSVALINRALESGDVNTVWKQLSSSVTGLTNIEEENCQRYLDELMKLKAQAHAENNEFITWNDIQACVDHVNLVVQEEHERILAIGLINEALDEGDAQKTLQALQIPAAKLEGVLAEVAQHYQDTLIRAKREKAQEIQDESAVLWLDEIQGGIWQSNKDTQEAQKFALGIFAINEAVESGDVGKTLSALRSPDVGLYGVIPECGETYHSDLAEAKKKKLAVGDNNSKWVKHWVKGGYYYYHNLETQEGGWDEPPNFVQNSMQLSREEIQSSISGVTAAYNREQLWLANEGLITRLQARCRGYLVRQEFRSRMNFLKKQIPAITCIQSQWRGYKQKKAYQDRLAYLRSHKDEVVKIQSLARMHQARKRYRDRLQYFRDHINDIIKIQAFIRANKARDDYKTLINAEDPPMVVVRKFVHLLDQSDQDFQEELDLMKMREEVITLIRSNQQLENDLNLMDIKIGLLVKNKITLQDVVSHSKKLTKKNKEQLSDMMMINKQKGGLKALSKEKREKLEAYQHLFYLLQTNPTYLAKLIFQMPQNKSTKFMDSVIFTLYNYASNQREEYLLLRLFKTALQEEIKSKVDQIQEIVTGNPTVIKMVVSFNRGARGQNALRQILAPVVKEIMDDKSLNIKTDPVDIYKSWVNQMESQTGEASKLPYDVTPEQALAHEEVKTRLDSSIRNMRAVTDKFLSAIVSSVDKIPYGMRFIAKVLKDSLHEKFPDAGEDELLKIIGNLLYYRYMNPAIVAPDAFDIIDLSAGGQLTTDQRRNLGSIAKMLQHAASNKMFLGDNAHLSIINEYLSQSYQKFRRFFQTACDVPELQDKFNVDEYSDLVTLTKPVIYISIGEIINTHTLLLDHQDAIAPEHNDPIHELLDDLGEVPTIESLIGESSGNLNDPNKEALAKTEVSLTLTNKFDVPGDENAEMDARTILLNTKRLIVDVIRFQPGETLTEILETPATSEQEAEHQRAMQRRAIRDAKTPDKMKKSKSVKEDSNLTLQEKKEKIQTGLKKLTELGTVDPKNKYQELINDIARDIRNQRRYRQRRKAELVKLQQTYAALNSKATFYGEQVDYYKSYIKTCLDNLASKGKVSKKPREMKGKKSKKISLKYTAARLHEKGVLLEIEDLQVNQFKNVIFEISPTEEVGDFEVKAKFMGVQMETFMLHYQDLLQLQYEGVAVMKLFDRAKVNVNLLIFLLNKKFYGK
UniProt Q92633: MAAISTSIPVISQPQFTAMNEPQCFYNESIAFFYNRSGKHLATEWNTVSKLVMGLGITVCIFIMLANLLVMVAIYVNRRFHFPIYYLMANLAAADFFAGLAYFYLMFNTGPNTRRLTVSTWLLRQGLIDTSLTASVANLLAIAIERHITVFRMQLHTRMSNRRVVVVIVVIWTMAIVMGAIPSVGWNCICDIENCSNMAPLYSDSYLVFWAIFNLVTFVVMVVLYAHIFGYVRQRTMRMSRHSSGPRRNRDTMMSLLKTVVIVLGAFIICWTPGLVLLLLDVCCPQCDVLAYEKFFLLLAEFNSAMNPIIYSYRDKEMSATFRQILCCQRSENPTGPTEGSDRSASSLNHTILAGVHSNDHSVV
UniProt P62834: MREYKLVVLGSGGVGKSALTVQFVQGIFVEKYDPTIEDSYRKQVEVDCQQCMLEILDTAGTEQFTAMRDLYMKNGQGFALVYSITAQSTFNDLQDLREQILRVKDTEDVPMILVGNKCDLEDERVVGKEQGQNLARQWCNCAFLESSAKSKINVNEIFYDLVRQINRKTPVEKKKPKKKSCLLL
UniProt P32121: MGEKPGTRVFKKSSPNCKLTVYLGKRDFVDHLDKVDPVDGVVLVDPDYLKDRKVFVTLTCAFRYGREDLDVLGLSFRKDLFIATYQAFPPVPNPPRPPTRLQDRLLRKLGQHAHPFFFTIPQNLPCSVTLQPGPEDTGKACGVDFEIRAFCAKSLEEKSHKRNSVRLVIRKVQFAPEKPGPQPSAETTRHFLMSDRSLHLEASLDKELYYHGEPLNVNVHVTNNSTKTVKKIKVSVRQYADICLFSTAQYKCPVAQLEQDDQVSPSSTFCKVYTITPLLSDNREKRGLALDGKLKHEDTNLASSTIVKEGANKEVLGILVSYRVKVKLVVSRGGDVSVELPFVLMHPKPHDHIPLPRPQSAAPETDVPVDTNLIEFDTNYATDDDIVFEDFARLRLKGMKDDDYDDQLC

Experiment [5] deals with YFP-Rap1A (UniProt P62834). The experiment is described as above.

No constants are given. Whether binding was seen depends on the method and setting. In cells and extracts the contact can be indirect. Some entries that bind do so weakly or less than the wild type.

For β-arrestin2 (from UniProt P32121 1-409), the binding result in experiment [1] and in experiment [2] was “binds” in each case.
On to Rap1A (from UniProt P62834 1-184), for which the binding result in experiment [3] is on record as “binds”.
For IQGAP1 (from UniProt P46940 1-1657), the binding entry in experiment [4] is “no binding”; in experiment [5], “binds”; in experiment [3], “binds”.

For the origin of these results see paper PMC3566084.
